In publication PMC4336329 (PLoS ONE, 2015):
The whole screen tested about 310,000 compounds, of which about 2,200 (0.71%) showed an effect of 50% or more. The effect is printed as a negative number. This is one part of the list.

target: human ether-à-go-go-related gene (hERG) potassium channel (human, UniProt Q12809); assay: primary screen, population patch clamp on CHO cells stably expressing hERG
Sequence (Q12809 whole entry, looked up): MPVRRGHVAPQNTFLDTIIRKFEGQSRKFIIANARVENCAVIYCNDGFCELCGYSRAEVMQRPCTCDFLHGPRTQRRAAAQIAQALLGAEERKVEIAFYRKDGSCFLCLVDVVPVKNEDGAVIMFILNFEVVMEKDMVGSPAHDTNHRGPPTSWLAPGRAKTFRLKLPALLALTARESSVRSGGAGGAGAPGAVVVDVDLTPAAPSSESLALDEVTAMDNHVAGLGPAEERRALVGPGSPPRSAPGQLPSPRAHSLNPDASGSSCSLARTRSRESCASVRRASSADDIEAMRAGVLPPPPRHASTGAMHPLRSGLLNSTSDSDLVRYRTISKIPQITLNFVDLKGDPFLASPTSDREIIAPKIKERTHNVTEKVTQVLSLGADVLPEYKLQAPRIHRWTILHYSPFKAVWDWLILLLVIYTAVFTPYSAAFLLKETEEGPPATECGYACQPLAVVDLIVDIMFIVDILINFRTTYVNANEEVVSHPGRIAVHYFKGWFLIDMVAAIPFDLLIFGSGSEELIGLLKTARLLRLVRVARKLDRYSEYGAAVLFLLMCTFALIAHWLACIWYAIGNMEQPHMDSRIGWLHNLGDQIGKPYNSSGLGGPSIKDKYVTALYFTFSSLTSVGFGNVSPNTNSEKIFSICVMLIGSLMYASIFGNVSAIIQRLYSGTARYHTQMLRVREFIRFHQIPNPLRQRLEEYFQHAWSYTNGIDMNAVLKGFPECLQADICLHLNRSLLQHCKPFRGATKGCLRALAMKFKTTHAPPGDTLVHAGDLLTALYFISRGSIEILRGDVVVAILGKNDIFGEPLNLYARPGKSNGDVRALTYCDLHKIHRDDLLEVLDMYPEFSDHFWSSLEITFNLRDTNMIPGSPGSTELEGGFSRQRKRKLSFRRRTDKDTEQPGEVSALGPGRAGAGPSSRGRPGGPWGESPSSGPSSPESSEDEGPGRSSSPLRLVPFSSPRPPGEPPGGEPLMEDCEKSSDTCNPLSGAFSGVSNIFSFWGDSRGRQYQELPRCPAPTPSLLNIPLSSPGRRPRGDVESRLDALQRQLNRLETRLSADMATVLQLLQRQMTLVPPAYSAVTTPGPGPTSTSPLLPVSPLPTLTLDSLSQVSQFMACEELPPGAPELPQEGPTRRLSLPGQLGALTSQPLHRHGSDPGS

Structure (SMILES) | hERG current change (%, negative = inhibition) at 1uM [%]
O=C(COc1ccc2ccccc2c1)Nc1ccc(S(=O)(=O)N2CCCCCC2)cc1 | 9.96
C[C@]12C(=O)N(c3ccc(Cl)cc3)C(=O)N1[C@H]1c3ccccc3OC[C@@H]1[C@H]2c1ccccc1 | 14
CCN(CC(=O)NCc1ccc(F)cc1)c1ccc(S(C)(=O)=O)cc1[N+](=O)[O-] | -5.44
Cc1cccc(N=C2NN=C(c3ccccc3F)CS2)c1C | 13.7
Cc1cc(NC(=O)c2ccc(Cl)cc2)n(CCC#N)n1 | 16.4
CC(C)(C)OC(=O)N1CCC[C@H]1C(=O)NCC1CCC(C(=O)O)CC1 (stereo partly shown) | -2.6
Cc1cc(C)n2nc(C(=O)N/N=C/c3ccccc3Cl)nc2n1 | 9.68
Cc1nn(Cc2ccc(C(=O)NN)o2)c(C)c1Cl | 12.6
COC(=O)CC1C(=O)NCCN1C(=O)Nc1cccc(Cl)c1 (stereo not shown) | 9.11
O=C(NCCCN1CCOCC1)c1ccc(Br)cc1 | 7.74
CC(OC(=O)/C=C/c1ccc2ccccc2n1)C(=O)Nc1ccc(S(N)(=O)=O)cc1 (stereo not shown) | 11.8
CN1CCN(c2cc([N+](=O)[O-])ccc2Cl)CC1 | 1.37
CC(C(=O)Nc1ccc(O)cc1)c1cccc(C(=O)c2ccccc2)c1 (stereo not shown) | 14.2
CC1(C)Cc2ccccc2-c2nnc(-c3ccccc3)n21 | 8.69
CC(=O)N1CCc2cc(S(=O)(=O)CCC(=O)N3CCN(c4ccccc4F)CC3)ccc21 | 11.7
Cn1ccnc1C(=O)c1cc(SCC(=O)NC2CC2)nc2ccccc12 | 3.89
COc1ccc(OCC(=O)c2c(O)c3ccccc3oc2=O)cc1 | -6.2
O=C(O)C(=O)O.O=C(c1cccnc1)N1CCN(Cc2cccc(Br)c2)CC1 | -4.82
CC1CCN(S(=O)(=O)c2ccc3c(c2)n(C)c(=O)n3C)CC1 | 0.216
O=C(CSCC(=O)OCC(=O)c1ccc(Br)cc1)Nc1ccc(Br)cc1 | 1.8
CC(C)C[C@H](NC(=O)c1[nH]cnc1C(=O)Nc1ccc(Cl)cc1)C(=O)OC(C)(C)C | 17.6
CCOc1ccc(NC(=O)CN(C)C(=O)c2cc([N+](=O)[O-])ccc2N2CCOCC2)cc1OCC | -16.7
CNC[C@@H](Cc1ccccc1)NC[C@@H](CC1CCCCC1)NCCCc1ccccc1 | 4.99
CC(=O)c1ccc(S(=O)(=O)N2CCCC(N(C)CCc3ccccn3)C2)cc1 (stereo not shown) | -44.4
CCOc1ccc(/C=N/OCC(=O)NCc2cccs2)cc1 | 5.8
CN(CCc1cnn(C)c1)Cc1cn(C)nc1-c1ccc2c(c1)OCCO2 | 6.16
CC(C)NC(=O)CC(=O)N/N=C/c1ccc(Br)cc1 | 9.15
COc1ccc(OC)c(Cc2nnc(CCC(=O)NC3CCCCC3)o2)c1 | 16.9

Structure (SMILES) | hERG current change (%, negative = inhibition) at 1uM [%]
Cc1ccc(/C=C2\SC(=S)N(CCC(=O)NNC(=O)c3cccc(O)c3)C2=O)cc1 | 10.7
CC1=CC(C)(C)N(C(=O)C(C)N2C(=O)c3ccccc3C2=O)c2ccc(C)cc21 (stereo not shown) | 15.1
O=C(c1ccco1)[C@@H]1[C@@H]2C(=O)N(c3ccc(F)cc3)C(=O)[C@@H]2C2c3ccccc3C=CN21 (stereo partly shown) | 13.4
CN(C)S(=O)(=O)c1cccc(NC(=O)CSc2nncn2-c2ccccc2)c1 | 1.2
COc1ccc(N2CCN(S(=O)(=O)c3ccc4c(c3)NC(=O)C(C)C(=O)N4)CC2)cc1 (stereo not shown) | 14.2
Cc1nn(-c2ccccc2)c2[nH]c(C(F)(F)F)cc(=O)c12 | -11
Cc1nn(CC(=O)Nc2ccc(C(=O)N3CCCCC3)cc2)c(=O)c2ccccc12 | 3.97
CC1CC(CC(C)C(=O)NC(=S)Nc2ccc(S(N)(=O)=O)cc2)C(=O)O1 (stereo not shown) | 12.1
COc1cc(C2C(C#N)=C(N)Oc3cc(O)ccc32)cc2c1OCO2 (stereo not shown) | -4.94
COCCNC(=S)N/N=C/c1c(C)[nH]c2ccccc12 | -0.83
O=C(COn1nnc2ccc(C(F)(F)F)cc21)Nc1nnc(-c2ccccc2)o1 | -10.6
Cc1ccccc1NS(=O)(=O)c1ccc(C(=O)N2CCCCCC2)cc1 | -0.454
O=C(COC(=O)/C=C/c1ccccc1[N+](=O)[O-])Nc1ccc(OCc2ccccc2)cc1 | 14
CCN(CC(=O)Nc1c(F)cccc1F)C(=O)C1CCN(C(=O)c2ccc(Cl)cc2)CC1 | 14
COc1ccc(OC)c(NC(=O)CCCNC(=O)Cn2cnc3sc(C)c(C)c3c2=O)c1 | 13.4
CCCOc1ccc2c(c1)C(=NN=C(N)N)c1cc(OCCC)ccc1-2.Cl | 18.3
Cc1oc(-c2ccccc2)nc1CSc1nc2c(c(=O)[nH]1)CCC2 | 3.64
CCOCCCNC(=S)NCCNc1nc2c(C)cccc2cc1C#N | 6.67
COc1cc(C2=NC(CO)(CO)CO2)cc(OC)c1OC | 3.46
COc1ccccc1N1CCN(S(=O)(=O)CCNC(=O)C2CCCC2)CC1 | 1.09
CCCCCCN1C=CC=C/C1=C\C=C(C#N)C#N | -69.9
O=C1CN=C(Nc2ccccc2Cl)N1c1ccccc1 | 7.15
COC(=O)c1ccc(NC(=O)c2ccccc2-c2ccccc2C(=O)O)cc1 | -0.709
Clc1cnc2nc(SC/C=C/c3ccccc3)[nH]c2c1 | 13.9
CC1CCC2(CC1)NC(=O)N(CC(=O)Nc1ccc(F)cc1)C2=O (stereo not shown) | 7.67
O=C(NCCCN1CCCC1=O)c1cccc(S(=O)(=O)Nc2ccccc2Cl)c1 | 14.5
O=C(c1cc2c(=O)oc3ccccc3c2s1)N1CCOCC1 | 9.75
